Test results from the supplement of paper PMC4967469.
The IC50 comes from the fitted curve, where viability falls to half of the control; where the fit passes the top or lowest dose, that dose stands as a limit. The AUC spans the tested range (256-fold, ending at the top dose) of the same fit: 1 means no effect, lower means more sensitive. For some assays here: Any top dose called inferred comes from the curve model; the source does not state it.

Key:
Assay in all cases: Viability of human cancer cell lines after 72 h of drug (GDSC screen)
[1] = compound: Cc1ccc(C(=O)Nc2cccc(C(F)(F)F)c2)cc1Nc1nc(-c2cccnc2)nc2c1cnn2C [NVP-BHG712]; conditions: top dose 10.24 µM; top dose inferred
Protocol: (§1)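 Human cancer cell lines in 384-well plates, medium with 10% serum, drug for 72 h over a 256-fold dose range (nine 2-fold or five 4-fold steps up to the top dose). Adherent lines were fixed and stained with the nucleic acid dye Syto60, suspension lines read with resazurin; signal relative to control wells, capped at 0 and 100%. One two-parameter sigmoid per drug and line, fitted in a mixed model over all curves with the slope shared within a line.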

[2] = compound: CO[C@@]12[C@H](COC(N)=O)C3=C(C(=O)C(C)=C(N)C3=O)N1C[C@@H]1N[C@@H]12 [Mitomycin C]; conditions: top dose 16 µM
Protocol: as §1

[3] = compound: CO[C@@H]1[C@H](N(C)C(=O)c2ccccc2)C[C@H]2O[C@]1(C)n1c3ccccc3c3c4c(c5c6ccccc6n2c5c31)C(=O)NC4 [Midostaurin]; conditions: top dose 0.512 µM; top dose inferred
Protocol: as §1

[4] = compound: O=C(O)CNC(=O)c1c(O)c2ccccc2n(Cc2ccccc2)c1=O [IOX2]; conditions: top dose 0.1 µM; top dose inferred
Protocol: as §1

[5] = compound: CC[C@H](CO)Nc1nc(NCc2ccccc2)c2ncn(C(C)C)c2n1 [Roscovitine]; conditions: top dose 16 µM; top dose inferred
Protocol: as §1

[6] = compound: COc1cc(Nc2c(C#N)cnc3cc(OCCCN4CCN(C)CC4)c(OC)cc23)c(Cl)cc1Cl [Bosutinib]; conditions: top dose 2 µM
Protocol: as §1

Row | Cell Line | AUC [1] | IC50 [1] | AUC [2] | IC50 [2] | AUC [3] | IC50 [3] | AUC [4] | IC50 [4] | AUC [5] | IC50 [5] | AUC [6] | IC50 [6]
1 | 8-MG-BA (glioma, adherent) | 0.952 | > 10200 nM | 0.183 | 121 nM | 0.767 | 179 nM | 0.978 | > 100 nM | 0.963 | > 16000 nM | 0.889 | > 2000 nM
2 | 697 (lymphoblastic leukaemia, suspension) | 0.8 | 3860 nM | 0.032 | < 62.5 nM | 0.775 | 162 nM | 0.991 | > 100 nM | 0.85 | 8610 nM | 0.573 | 190 nM
3 | A4-Fuk (B-cell lymphoma, suspension) | 0.917 | > 10200 nM | 0.278 |  | 0.854 | 433 nM | 0.984 | > 100 nM | 0.885 | > 16000 nM | 0.753 | 695 nM
4 | A101D (melanoma, adherent) | 0.82 | 7710 nM | 0.305 | 248 nM | 0.852 | > 512 nM | 0.948 | > 100 nM | 0.877 | > 16000 nM | 0.86 | > 2000 nM
5 | A253 (head and neck, adherent) | 0.979 | > 10200 nM | 0.327 | 335 nM | 0.94 | > 512 nM | 0.988 | > 100 nM | 0.975 | > 16000 nM | 0.95 | > 2000 nM
6 | A388 (skin, adherent) | 0.955 | > 10200 nM | 0.276 |  | 0.911 | > 512 nM | 0.962 | > 100 nM | 0.965 | > 16000 nM | 0.891 | > 2000 nM
7 | ALL-PO (lymphoblastic leukaemia, suspension) | 0.759 | 3760 nM | 0.125 | < 62.5 nM | 0.732 | 154 nM | 0.982 | > 100 nM | 0.942 | > 16000 nM | 0.859 | 1810 nM
8 | ALL-SIL (T-cell leukaemia, suspension) | 0.057 | < 40 nM | 0.11 | 71.8 nM | 0.812 | 228 nM | 0.987 | > 100 nM | 0.984 | > 16000 nM | 0.687 | 383 nM
9 | AM-38 (glioma, semi-adherent) | 0.861 | 9010 nM | 0.306 | 281 nM | 0.926 | > 512 nM | 0.987 | > 100 nM | 0.982 | > 16000 nM | 0.988 | > 2000 nM
10 | AMO-1 (haematopoietic neoplasm, suspension) | 0.762 | 3190 nM | 0.399 | 550 nM | 0.99 | > 512 nM | 0.985 | > 100 nM | 0.955 | > 16000 nM | 0.956 | > 2000 nM
11 | ARH-77 (myeloma, suspension) | 0.88 | 10000 nM | 0.301 | 282 nM | 0.964 | > 512 nM | 0.987 | > 100 nM | 0.954 | > 16000 nM | 0.985 | > 2000 nM
12 | BB30-HNC (head and neck, adherent) | 0.93 | > 10200 nM | 0.127 | 67.6 nM | 0.881 | > 512 nM |  |  | 0.93 | > 16000 nM | 0.631 | 286 nM
13 | BB49-HNC (head and neck, adherent) | 0.936 | > 10200 nM | 0.421 | 558 nM | 0.916 | > 512 nM | 0.945 | > 100 nM | 0.9 | > 16000 nM | 0.977 | > 2000 nM
14 | BB65-RCC (kidney, adherent) | 0.946 | > 10200 nM | 0.239 | 154 nM | 0.894 | > 512 nM | 0.966 | > 100 nM | 0.76 | 6460 nM | 0.845 | 1780 nM
15 | BE2-M17 (neuroblastoma, adherent) | 0.952 | > 10200 nM | 0.614 | 2080 nM | 0.987 | > 512 nM | 0.986 | > 100 nM | 0.91 | > 16000 nM | 0.987 | > 2000 nM
16 | BE-13 (lymphoblastic leukaemia, suspension) | 0.362 | 273 nM | 0.084 | < 62.5 nM | 0.896 | > 512 nM | 0.983 | > 100 nM | 0.977 | > 16000 nM | 0.724 | 514 nM
17 | BV-173 (chronic myeloid leukaemia, suspension) | 0.122 | 49.7 nM | 0.617 | 2010 nM | 0.898 | 509 nM | 0.987 | > 100 nM | 0.967 | > 16000 nM | 0.566 | 184 nM
18 | C2BBe1 (large intestine, adherent) | 0.885 | > 10200 nM | 0.635 | 2480 nM | 0.975 | > 512 nM | 0.975 | > 100 nM | 0.933 | > 16000 nM | 0.88 | > 2000 nM
19 | CA46 (Burkitt lymphoma, suspension) | 0.669 | 1960 nM | 0.497 | 983 nM | 0.877 | > 512 nM | 0.982 | > 100 nM | 0.934 | > 16000 nM | 0.967 | > 2000 nM
20 | CAS-1 (glioma, adherent) | 0.911 | > 10200 nM | 0.682 | 3910 nM | 0.732 | 190 nM | 0.979 | > 100 nM | 0.981 | > 16000 nM | 0.982 | > 2000 nM
21 | CESS (acute myeloid leukaemia, suspension) | 0.418 | 396 nM | 0.239 | 202 nM | 0.911 | > 512 nM | 0.99 | > 100 nM | 0.902 | 15700 nM | 0.991 | > 2000 nM
